Source: PubChem BioAssay AID488969 (Vanderbilt High Throughput Screening Facility, 2010)
In all, about 110,000 compounds were measured (“z-score”: median about -0.1, highest 2% from about 2 on). The list shows a part of the results.

Each compound was assayed against Metabotropic glutamate receptor 8 (Rattus norvegicus) (UniProt P70579) (assay: mGluR8 Gi/Go-coupled signaling modulation – cell-based, rat, thallium flux, HTS, primary screen (AID 488969)). Settings: HEK293 rat mGluR8, GIRK (G protein-gated inwardly rectifying potassium channel) thallium flux, FluoZin2; at 10 µM; stronger effect = higher value.
Sequence of UniProt P70579 (P70579 whole entry, looked up): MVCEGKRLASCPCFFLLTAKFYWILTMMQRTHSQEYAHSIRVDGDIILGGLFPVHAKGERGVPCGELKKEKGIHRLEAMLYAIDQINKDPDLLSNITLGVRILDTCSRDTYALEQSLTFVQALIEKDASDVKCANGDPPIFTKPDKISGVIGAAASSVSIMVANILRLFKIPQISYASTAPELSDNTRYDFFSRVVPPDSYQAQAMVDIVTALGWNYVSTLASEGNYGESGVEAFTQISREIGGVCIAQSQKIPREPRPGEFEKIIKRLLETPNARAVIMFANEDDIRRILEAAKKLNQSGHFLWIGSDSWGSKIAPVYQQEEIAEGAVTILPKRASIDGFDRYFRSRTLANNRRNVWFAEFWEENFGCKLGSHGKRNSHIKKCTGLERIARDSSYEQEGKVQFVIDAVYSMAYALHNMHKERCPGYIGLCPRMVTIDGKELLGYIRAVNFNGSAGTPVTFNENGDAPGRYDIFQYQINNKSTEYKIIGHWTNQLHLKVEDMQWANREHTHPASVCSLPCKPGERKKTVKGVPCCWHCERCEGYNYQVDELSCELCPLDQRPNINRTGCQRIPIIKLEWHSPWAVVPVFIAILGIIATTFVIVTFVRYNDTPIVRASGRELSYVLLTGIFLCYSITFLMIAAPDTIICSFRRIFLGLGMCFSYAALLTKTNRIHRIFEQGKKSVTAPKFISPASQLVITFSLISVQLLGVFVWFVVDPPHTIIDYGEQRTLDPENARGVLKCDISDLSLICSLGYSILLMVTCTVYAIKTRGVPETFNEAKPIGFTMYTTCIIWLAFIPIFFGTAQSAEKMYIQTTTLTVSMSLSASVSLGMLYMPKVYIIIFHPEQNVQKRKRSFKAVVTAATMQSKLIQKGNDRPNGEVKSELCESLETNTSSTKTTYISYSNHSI

Compound	z-score
CC(C)N1CCN(c2ccc(O)cc2)CC1	1.23
CCc1ccc(N2C(=O)NC(=O)/C(=C/c3cccn3CCOc3ccc(C(C)CC)cc3)C2=O)cc1 (stereo unspecified)	0.766
Cc1ccc(C2N(c3cc(C)on3)C(=O)C3CCCN32)cc1 (stereo unspecified)	0.398
CCCCCn1c(=O)c(C(=O)NCc2ccccn2)c(O)c2ccccc21	-0.154
CN1C(=O)N(C)C(=O)C2(Cc3cc(N)ccc3N3CCN(c4ccccc4F)CC32)C1=O (stereo unspecified)	0.339
O=C1C2CCCN2C(c2cccnc2)N1c1cccc(Cl)c1 (stereo unspecified)	-0.598
COc1ccc(CCN(C)Cc2c(F)cccc2F)cc1OC	0.419
O=C1NC(=O)N(c2ccc3c(c2)OCO3)C(=O)/C1=C/c1ccc(N2CCCCC2)o1	-0.618
CC12CCCCC1N(O)CN2O (stereo unspecified)	0.155
C=CCn1c(O)c(C(C)=NCCC(c2ccccc2)c2ccccc2)c(=O)[nH]c1=O	-0.145
CN=C(SCc1ccccc1)c1c(O)n(C)c(=O)n(C)c1=O	0.0137
Cc1ccc(N(C)C(=O)Oc2ccc(C(=O)c3ccc(Cl)cc3)cc2)cc1	0.23
CC(=O)Nc1cc(C(=O)N2CCC3(CC2)OCCO3)ccc1S(=O)(=O)c1ccc(C)cc1	-0.0526
CCSc1nnc([C@@H](N)Cc2c[nH]c3ccccc23)o1	0.338
CN1C(=O)C(Cc2cccc3ccccc23)C(=O)N(C)C1=O	-0.744
O=c1[nH]c(=O)n(-c2cccc(Cl)c2)c(O)c1C=NCCN1CCCCC1	-0.625

Compound	z-score
CCCCCCN=C(C)c1c(O)n(CCCC)c(=O)[nH]c1=O	-2.32
O=C(C1CC(c2ccc(F)cc2)=NO1)N1CCC2(CC1)OCCO2 (stereo unspecified)	-0.112
O=C1NC(=S)N(c2ccccc2F)C(=O)/C1=C\c1cccs1	-0.144
COc1ccc(C(=O)C2(C)N(O)C(C)C(c3cccs3)=[N+]2[O-])cc1 (stereo unspecified)	0.219
CCOC(=O)c1nc2ccccc2c(=O)n1-c1cccc(C)c1	0.0451
CCC(C)OC(=O)c1c(N)n(Cc2cccs2)c2nc3ccccc3nc12 (stereo unspecified)	-0.439
CCC(CC)C(=O)NC1CCSC1=O (stereo unspecified)	-0.27
CN(C)C(=O)Oc1ccc(Cl)c2ccccc12	-0.361
CC12CCCCC1=[N+]([O-])CN2O (stereo unspecified)	0.377
CCOC(=O)C(O)(c1ccc(N(C)C(=O)c2ccc(Cl)c(Cl)c2)cc1)C(F)(F)F (stereo unspecified)	-1.02
N[C@@H](Cc1c[nH]c2ccccc12)c1nnc(SCc2ccc(F)cc2)o1	-0.111
CC(=O)OC1(c2ccc(C)cc2)CN2CCC1c1ccccc12 (stereo unspecified)	0.393
OC12CCCCC1C(c1ccccc1)NCC2 (stereo unspecified)	-0.509
O=c1[nH]c(=S)n(Cc2ccco2)c(O)c1C=NCc1cccs1	-0.815
COc1ccc(-c2nc(CSCC(=O)N3CCC4(CC3)OCCO4)c(C)o2)cc1OC	-0.166
